Results from the supplement of paper PMC9446081.
Hit rate of the full screen: of about 39,000 compounds, about 220 (0.56%) showed activity. The list shows a part of the results.

System: Escherichia coli K-12 BW25113
Experiment: relative growth (OD600 normalised to plate interquartile mean) (fraction); higher = less growth inhibition, active = 0.2 or less
Details: 50 µM; LB; incubation time: overnight (16-24 h)
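Further: static incubation at 37 °C against the wild-type strain, values averaged over two biological replicates.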

SMILES | relative growth
C[C@H]1CN([C@@H](C)CO)C(=O)c2cc(Br)cnc2O[C@H]1CN(C)C(=O)Nc1ccc(F)cc1 | inactive: 1.01
OCC1(O)OCC(O)C(O)C1O (centres undefined) | inactive: 1.16
C[C@H]1CN([C@@H](C)CO)C(=O)c2cc(C#Cc3ccccc3F)cnc2O[C@@H]1CN(C)C(=O)c1ccc2c(c1)OCO2 | inactive: 1.02
C[C@@H]1CN([C@H](C)CO)C(=O)c2cc(-c3ccc(C(=O)N(C)C)cc3)cnc2O[C@H]1CN(C)C(=O)C1CC1 | inactive: 1.03
C[C@@H]1CN([C@@H](C)CO)C(=O)c2cccc(NS(=O)(=O)c3cccs3)c2O[C@@H]1CN(C)Cc1ccc(-c2ccccc2)cc1 | inactive: 1.03
CCS(=O)(=O)Nc1ccc2c(c1)C(=O)N(C)C[C@H](OC)[C@H](C)CN(Cc1ccccn1)[C@@H](C)CO2 | inactive: 1.02
CC(C)(O)C#Cc1cccc(-c2nc(C(=O)Nc3ccc(-c4ccccc4)cc3)cc3c2[C@@H](CCO)N(S(=O)C(C)(C)C)C3)c1 (some centres undefined) | inactive: 0.997
NCc1ccc(-c2ccc(Br)cc2)cc1 | inactive: 0.968
C[C@@H]1CN([C@H](C)CO)C(=O)c2cc(NS(C)(=O)=O)ccc2O[C@H]1CN(C)S(=O)(=O)c1ccccc1 | inactive: 1.01
C[C@@H]1CN([C@@H](C)CO)C(=O)Cc2cc(NC(=O)CCN3CCOCC3)ccc2O[C@H]1CN(C)C(=O)Nc1ccc(F)cc1 | inactive: 1.01
COc1ccc(S(=O)(=O)Nc2cccc3c2O[C@@H](CN(C)S(=O)(=O)c2cn(C)cn2)[C@@H](C)CN([C@@H](C)CO)C3=O)cc1 | inactive: 1.01
CN1C[C@H](O)COC[C@H]2O[C@H](CC(=O)N3CCN(c4ccccc4)CC3)CC[C@@H]21 | inactive: 0.98
Cc1ccc(S(=O)(=O)N(C)C[C@@H]2Oc3c(NC(=O)NC(C)C)cccc3C(=O)N([C@H](C)CO)C[C@H]2C)cc1 | inactive: 0.995
C[C@@H]1CN([C@H](C)CO)C(=O)Cc2cc(NS(=O)(=O)c3cccs3)ccc2O[C@@H]1CN(C)Cc1ccc(Cl)c(Cl)c1 | inactive: 1.01
C[C@H]1CCCCO[C@H](CN(C)Cc2ccc(C(F)(F)F)cc2)[C@@H](C)CN([C@@H](C)CO)C(=O)c2cc(NC(=O)Nc3ccc4c(c3)OCO4)ccc2O1 | inactive: 1.03
Cc1ccc(S(=O)(=O)Nc2ccc3c(c2)C(=O)N([C@@H](C)CO)C[C@@H](C)[C@H](CN(C)C(=O)Cc2ccccc2)OCCCC[C@H](C)O3)cc1 | inactive: 0.981
C[C@@H]1CN([C@H](C)CO)C(=O)c2cc(NC(=O)CCN3CCOCC3)ccc2O[C@@H]1CN(C)Cc1ccccc1 | inactive: 1.02
C[C@H]1CN([C@@H](C)CO)C(=O)c2c(c3ccccc3n2C)-c2ccccc2CO[C@@H]1CN(C)Cc1ccccc1 | inactive: 0.976
C[C@@H]1CCCCO[C@@H](CN(C)S(C)(=O)=O)[C@H](C)CN([C@@H](C)CO)C(=O)c2cc(NS(=O)(=O)c3ccccc3)ccc2O1 | inactive: 1.02
COc1cccc(C#Cc2ccc([C@H]3[C@@H](CO)N4C(=O)CN(S(=O)(=O)c5ccccc5C)C[C@@H]34)cc2)c1 | inactive: 1.04

SMILES | relative growth
O=C(NCCCN1CCOCC1)[C@H]1[C@H](CO)[C@H]2Cn3c(ccc(C4=CCCCC4)c3=O)[C@@H]1N2 | inactive: 0.995
C[C@H](CO)N1C[C@H](C)[C@H](CN(C)C(=O)Nc2ccc(C(F)(F)F)cc2)Oc2ccc(NS(=O)(=O)c3ccc(Cl)cc3)cc2CC1=O | inactive: 0.931
CC(N)O.Cc1cc(CC(C)CC(C)(C)C)n(O)c(=O)c1 (centres undefined) | active: 0.0449
C[C@H]1CN([C@@H](C)CO)C(=O)c2c(c3ccccc3n2C)-c2ccccc2CO[C@H]1CN(C)Cc1ccc(C(=O)O)cc1 | inactive: 1.01
C[C@@H]1CN([C@@H](C)CO)C(=O)c2cccc(NC(=O)c3ccc(-c4nccs4)cc3)c2O[C@H]1CN(C)S(=O)(=O)c1ccc(Cl)cc1 | inactive: 0.973
CN(C)CCCC[C@@H]1NC(=O)[C@@H]2C[C@H](C(=O)NCCCCCCNC(=O)CS)[C@H](c3cccc(OCCO)c3)N2C1=O | inactive: 1.02
CCC1OC(=O)C(C)C(OC2CC(C)(OC)C(O)C(C)O2)C(C)C(OC2OC(C)CC(N(C)C)C2O)C(C)(O)CC(C)C(=O)C(C)C(O)C1(C)O.CCCCCCCCCCCCCCCCCC(=O)O (centres undefined) | inactive: 0.665
C[C@@H]1CN([C@H](C)CO)S(=O)(=O)c2ccc(C#Cc3cccnc3)cc2O[C@H]1CN(C)C(=O)CN(C)C | inactive: 0.976
CCN(CC)/[N+]([O-])=N/OC | inactive: 0.984
COc1ccc([Si](C)(C)[C@H]2[C@H](CCO)O[C@@]3(C(=O)N(Cc4ccc(N5C(=O)c6ccccc6Oc6ccccc65)cc4)c4ccccc43)[C@@H]2C)cc1 | inactive: 1.03
CCc1c(Cl)c(O)c(Cl)c(O)c1C(=O)O[C@H]1[C@H](O)[C@H](OC)[C@H](OC/C2=C\C=C\C[C@H](O)/C(C)=C/[C@H](CC)[C@@H](O[C@@H]3OC(C)(C)[C@@H](OC(=O)C(C)C)[C@H](O)[C@@H]3O)/C(C)=C/C(C)=C/C[C@@H]([C@@H](C)O)OC2=O)O[C@@H]1C | inactive: 0.987
Cc1noc(C)c1S(=O)(=O)Nc1ccc2c(c1)CC(=O)N([C@@H](C)CO)C[C@@H](C)[C@@H](CN(C)C(=O)NC1CCCCC1)O2 | inactive: 0.988
C[C@@H]1CCCCO[C@@H](CN(C)CC2CCCCC2)[C@H](C)CN([C@@H](C)CO)C(=O)c2cc(NC(=O)c3ccccc3)ccc2O1 | inactive: 0.985
Cc1noc(C)c1NC(=O)Nc1ccc2c(c1)C(=O)N([C@H](C)CO)C[C@H](C)[C@H](CN(C)Cc1ccc(C(=O)O)cc1)OCCCC[C@@H](C)O2 | inactive: 0.999
C[C@@H]1CCCCO[C@H](CN(C)Cc2ccncc2)[C@H](C)CN([C@@H](C)CO)C(=O)c2cc(NC(=O)C3CCCCC3)ccc2O1 | inactive: 1.04
CO[C@H]1CN(C)C(=O)c2cc(NS(=O)(=O)c3cn(C)cn3)ccc2OC[C@@H](C)N(CCC(F)(F)F)C[C@@H]1C | inactive: 1.03
O=c1c(O)c(-c2ccc(O)cc2)oc2cc(O)cc(O)c12 | inactive: 1.03
C[C@@H]1CN([C@@H](C)CO)S(=O)(=O)c2ccc(C#CCN(C)C)cc2O[C@H]1CN(C)Cc1ccccn1 | inactive: 1.03
Cc1ccc(S(=O)(=O)Nc2ccc3c(c2)C(=O)N([C@@H](C)CO)C[C@@H](C)[C@H](CN(C)Cc2ccc(Cl)c(Cl)c2)OCCCC[C@@H](C)O3)cc1 | inactive: 1.04
C[C@@H]1CN([C@H](C)CO)C(=O)c2cc(NC(=O)c3ccccc3)ccc2O[C@@H](C)CCCCO[C@H]1CN(C)C(=O)Nc1ccc(C(F)(F)F)cc1 | inactive: 1.01

SMILES | relative growth
CO[C@@H]1CN(C)C(=O)c2cc(NC(=O)c3cc(C)on3)ccc2OC[C@@H](C)N(C(=O)C2CCC2)C[C@H]1C | inactive: 1.04
C[C@@H]1CN([C@H](C)CO)C(=O)c2cc(NS(=O)(=O)c3ccc(F)cc3)ccc2O[C@@H]1CN(C)S(=O)(=O)c1ccccc1 | inactive: 1.05
O=C(C[C@@H]1CC[C@H]2[C@@H](COC[C@H](O)CN2Cc2cccc(C(F)(F)F)c2)O1)NCCc1ccncc1 | inactive: 1.04
CC(C)(C)NCc1ccsc1 | inactive: 0.992
CC(=O)[C@]1(O)Cc2c(O)c3c(c(O)c2[C@@H](O[C@@H]2C[C@@H](N)[C@H](O)[C@@H](C)O2)C1)C(=O)c1c(O)cccc1C3=O | inactive: 0.724
CN1CCN(C(=O)[C@H]2[C@H](CO)[C@H]3Cn4c(ccc(C5=CCCC5)c4=O)[C@@H]2N3S(C)(=O)=O)CC1 | inactive: 0.995
COc1ccc2c3c(n(c2c1)C)[C@@H](CO)N(C[C@]13CCN(CC1)C(=O)c1cnccn1)C(=O)c1cnccn1 | inactive: 1.02
Cc1c(N2CCCC2)cc2c(c1-n1cccc1)C(C)(C)CC2(C)C | inactive: 1.03
CO[C@@H]1CN(C)C(=O)c2cc(NC(=O)Nc3ccccc3)ccc2OC[C@H](C)N(C(=O)CN(C)C)C[C@H]1C | inactive: 0.992
C[C@@H]1CN([C@H](C)CO)C(=O)c2cc(NC(=O)Cn3cnnn3)ccc2O[C@H]1CN(C)Cc1ccc(-c2ccccc2)cc1 | inactive: 1.02
CN(C)CCCN1c2ccccc2CCc2ccc(Cl)cc21.Cl | inactive: 0.875
COc1ccc(S(=O)(=O)Nc2ccc3c(c2)C(=O)N([C@@H](C)CO)C[C@H](C)[C@H](CN(C)C(=O)NC2CCCCC2)OCCCC[C@@H](C)O3)cc1 | inactive: 0.993
O=C1c2ccccc2[C@@]2(Cc3ccccc3N(C3CC3)C2=O)[C@H](c2ccc(CO)cc2)N1Cc1ccccc1Cl | inactive: 0.984
NC1CCN(C(=O)c2cc3ccccc3[nH]2)CC1 | inactive: 1
CC(=O)Nc1ccc(OC(=O)c2ccccc2O)cc1 | inactive: 0.995
C[C@@H]1CN([C@@H](C)CO)C(=O)c2cc(NS(=O)(=O)c3ccc(Cl)cc3)ccc2O[C@@H](C)CCCCO[C@H]1CN(C)S(=O)(=O)c1ccc(Cl)cc1 | inactive: 1.04
CCCc1nc(C)c2c(=O)[nH]c(-c3cc(S(=O)(=O)N4CCN(CC)CC4)ccc3OCC)nn12.Cl | inactive: 0.999
C[C@H]1CN([C@@H](C)CO)C(=O)c2cccc(NS(=O)(=O)c3cn(C)cn3)c2O[C@H]1CN(C)C(=O)NC1CCCCC1 | inactive: 0.994
C[C@@H]1CN([C@H](C)CO)S(=O)(=O)c2ccc(-c3cccc(C(=O)N(C)C)c3)cc2O[C@H]1CN(C)C(=O)Cc1ccccn1 | inactive: 1.02
